{"source": "the supplement of paper PMC11417369", "note": "± gives the standard deviation of the averaged measurements. Some of the results follow.", "data": [{"test_system": "PfAP2-LT AP2 domain (GST-tagged)", "experiment": "gcPBM binding intensity (ln(normalized median fluorescence intensity)); higher = stronger DNA binding", "outline": "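In this array assay, P. falciparum DNA-binding domains with a GST tag, expressed in E. coli, were applied for 1 h to primer-extended double-stranded 36-bp intergenic genomic probes and negative controls on an Agilent 4 × 180k array. Bound protein was visualised with Alexa488 anti-GST antibody at 488 nm. Binding intensity is the highest Masliner-normalised natural-log median intensity across replicate spots of either probe orientation.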", "values": [{"sequence": "ATATATATACATATAACACACACATATATATATATA [CACACA_site8827]", "gcPBM binding intensity (ln)": "9.54 ± 0.42"}, {"sequence": "TAATTCACATTTTATACACACATTCGAACCTTTTTT [CACACA_site3341]", "gcPBM binding intensity (ln)": "9.18 ± 0.55"}, {"sequence": "TTGTATTTATTTATGGGAGGATTATAATCATTGTAG [GTGCAC_negctrl_site268]", "gcPBM binding intensity (ln)": "8.62 ± 0.37"}, {"sequence": "GTTATACACATATATACACACATATGTAGATATATA [CACACA_site7529]", "gcPBM binding intensity (ln)": "9.09 ± 0.26"}, {"sequence": "TTGATATCTTTTTTTTGTACATATATTTATAAGTAA [XGTACX_site3538]", "gcPBM binding intensity (ln)": "8.49 ± 0.35"}, {"sequence": "AAAATATAAGCCACTACACACATATATAAATGTATA [CACACA_site2639]", "gcPBM binding intensity (ln)": "9.16 ± 0.35"}, {"sequence": "TTTTAGAGTGATATATATTAACTTTTAATAAAAAAA [CACACA_negctrl_site611]", "gcPBM binding intensity (ln)": "8.1 ± 0.49"}, {"sequence": "TTTTTTTAAATTATATGTACATAATTTTAATTTTAT [XGTACX_site5086]", "gcPBM binding intensity (ln)": "8.54 ± 0.52"}, {"sequence": "ATACATATATTTTTATGTACATATATTTTTTTTGTA [XGTACX_site4546]", "gcPBM binding intensity (ln)": "8.74 ± 0.47"}, {"sequence": "TAAAGTACAGGAGTAAATTGAAAAAAAAAAAAAAAA [CACACA_negctrl_site1410]", "gcPBM binding intensity (ln)": "8.5 ± 0.57"}, {"sequence": "TATAATATTCCTTTTTAACACACATATGAACAAATA [CACACA_site7932]", "gcPBM binding intensity (ln)": "8.62 ± 0.41"}, {"sequence": "ATAAATAAATAAATACGTACATATATATATATATAT [XGTACX_site8838]", "gcPBM binding intensity (ln)": "9.53 ± 0.042"}, {"sequence": "TTACCTATTCTAAAATGTACACATTATATATGTGCT [XGTACX_site5776]", "gcPBM binding intensity (ln)": "9.04 ± 0.5"}, {"sequence": "ACATGTTTCATATGTTGTACTAACTTAAATATAAAT [XGTACX_site6412]", "gcPBM binding intensity (ln)": "8.61 ± 0.48"}, {"sequence": "AACACTCAAAAAAATTTAAATAAAAAAAAAAAAAAA [CACACA_negctrl_site680]", "gcPBM binding intensity (ln)": "8.31 ± 0.59"}, {"sequence": "TATGGAAGAAAATATACACACAAAAAAAAAAAATGG [CACACA_site4924]", "gcPBM binding intensity (ln)": "9.12 ± 0.41"}, {"sequence": "ATGATTTTTTTTATTTTTTAGCTAGAGCTAGCTTAT [CACACA_negctrl_site433]", "gcPBM binding intensity (ln)": "8.62 ± 0.52"}, {"sequence": "ATATGTTAAAAATTCACACAAAAAAGTATACAGATA [CACACA_site4179]", "gcPBM binding intensity (ln)": "8.99 ± 0.4"}, {"sequence": "TATGAATGCTTTTATGCACACGTACAAAAATATTAT [CACACA_site8851]", "gcPBM binding intensity (ln)": "8.88 ± 0.37"}, {"sequence": "TTAACTATAATAAAATGTACATATGTAACATATATA [XGTACX_site7790]", "gcPBM binding intensity (ln)": "8.66 ± 0.4"}, {"sequence": "TTATAACAAAAAATTAAAGAAAGAGAATAAGTGAAA [CACACA_negctrl_site975]", "gcPBM binding intensity (ln)": "8.62 ± 0.5"}, {"sequence": "AGGTCCTACACCAATAAATATCATATATATATTATA [CACACA_negctrl_site568]", "gcPBM binding intensity (ln)": "8.62 ± 0.45"}, {"sequence": "TTGTACATCTTTTGCACACGTAATGTTATTAAAATA [CACACA_site4827]", "gcPBM binding intensity (ln)": "8.89 ± 0.38"}, {"sequence": "TGTATATTTGTTGTTACACACATATATTTTTTTTTT [CACACA_site128]", "gcPBM binding intensity (ln)": "8.96 ± 0.43"}, {"sequence": "TTATTGTAAATATATGCATGTGCAAAATGAAAAAAA [TGCATGCA_site399]", "gcPBM binding intensity (ln)": "8.77 ± 0.52"}, {"sequence": "TTTTAAACAAGACACACACACATATATATATATATA [CACACA_site925]", "gcPBM binding intensity (ln)": "9.84 ± 0.11"}, {"sequence": "ATGTTTACATATTAGGGTACATAATAAATTGCATAT [XGTACX_site6712]", "gcPBM binding intensity (ln)": "8.66 ± 0.38"}, {"sequence": "CATGTATTTTATATTACACACTAATATTATATATAT [CACACA_site1508]", "gcPBM binding intensity (ln)": "8.85 ± 0.35"}, {"sequence": "GAATGTATAAAATGAACACACGCCAAATTAAATGAA [CACACA_site3044]", "gcPBM binding intensity (ln)": "9.12 ± 0.42"}, {"sequence": "AAAAATAATGCACATATATATAATATGTATATGTAT [CACACA_negctrl_site443]", "gcPBM binding intensity (ln)": "8.92 ± 0.45"}, {"sequence": "AAAAAATTAAATAATTACAAAAAAATAAAATAAAAA [GTGCAC_negctrl_site638]", "gcPBM binding intensity (ln)": "8.48 ± 0.67"}, {"sequence": "AATAAACAAATATGTACACACATATACCTATAAATA [CACACA_site7358]", "gcPBM binding intensity (ln)": "9.17 ± 0.37"}, {"sequence": "ATATTAGATTAATTTACACACAGAAAATGAGATTTT [CACACA_site541]", "gcPBM binding intensity (ln)": "8.77 ± 0.39"}, {"sequence": "CCAACATATATTATCACACACATATATATATATATA [CACACA_site2016]", "gcPBM binding intensity (ln)": "9.69 ± 0.24"}, {"sequence": "TAGAGTATATATAAATGTACATATTTTATGCTAATT [XGTACX_site7821]", "gcPBM binding intensity (ln)": "8.69 ± 0.45"}, {"sequence": "AAACAATACATATATTGTACATATATTATATTATAT [XGTACX_site8136]", "gcPBM binding intensity (ln)": "8.88 ± 0.43"}, {"sequence": "AATTTGAAATAAAGTAGTACAGTATATAAAAATATA [XGTACX_site128]", "gcPBM binding intensity (ln)": "8.73 ± 0.46"}, {"sequence": "TTAGAAATTCATTTTACACACAATTCAAAAGAATGT [CACACA_site2104]", "gcPBM binding intensity (ln)": "8.79 ± 0.42"}, {"sequence": "CGGATCTATAAGTGTACACAATCTAGCGAAAAGTTT [CACACA_site4932]", "gcPBM binding intensity (ln)": "8.88 ± 0.42"}, {"sequence": "AAAAAATCAAAACACACACACACACCCAAAAAAAAA [CACACA_site1444]", "gcPBM binding intensity (ln)": "10.2 ± 0.37"}, {"sequence": "ATAATGATTATAATATGTACATAAATATATATATTA [XGTACX_site5029]", "gcPBM binding intensity (ln)": "8.74 ± 0.47"}, {"sequence": "AATAAATAAACAAATTAACACACAGAATTTTTTTTT [CACACA_site8485]", "gcPBM binding intensity (ln)": "8.79 ± 0.43"}, {"sequence": "ATTATGTTATATATATGTACATATATAATGTTCATA [XGTACX_site6184]", "gcPBM binding intensity (ln)": "8.79 ± 0.35"}, {"sequence": "ATAATTATAAAATAAACACACATATATATTTATATG [CACACA_site440]", "gcPBM binding intensity (ln)": "8.74 ± 0.43"}, {"sequence": "ATAAAATAAAAAAGTAGTACACACTTCACGATATTT [XGTACX_site8289]", "gcPBM binding intensity (ln)": "8.96 ± 0.46"}, {"sequence": "TAAGAATTGAAAAAATGTACACAATATAAAATTGAA [XGTACX_site698]", "gcPBM binding intensity (ln)": "8.61 ± 0.54"}, {"sequence": "CCTATTTATTTATACACACACATATATAAATAAATA [CACACA_site7417]", "gcPBM binding intensity (ln)": "9.04 ± 0.31"}, {"sequence": "AAAACAAATAAGTAAACACACATATAAAATCTATAT [CACACA_site7262]", "gcPBM binding intensity (ln)": "9.18 ± 0.48"}, {"sequence": "TTATGTAAATGCTTATGTACTTATTACAATATTTTT [XGTACX_site4057]", "gcPBM binding intensity (ln)": "8.81 ± 0.56"}, {"sequence": "TTTATTACTATGTAAACACACATGCAATATATGTTA [CACACA_site1114]", "gcPBM binding intensity (ln)": "8.81 ± 0.42"}, {"sequence": "AAAAAGAAAAAAAAATGTACATAAAGTCTAATGATA [XGTACX_site4781]", "gcPBM binding intensity (ln)": "8.78 ± 0.49"}, {"sequence": "ATATTATATAAATACACACACACATGCATGCACATA [CACACA_site4236]", "gcPBM binding intensity (ln)": "9.92 ± 0.24"}, {"sequence": "AAAAAGAATAAATAAATAAATAAATATATATATATA [GTGCAC_negctrl_site584]", "gcPBM binding intensity (ln)": "8.91 ± 0.4"}, {"sequence": "TATTAATCATATAAATGTACGTATATATATTTTTCT [XGTACX_site1421]", "gcPBM binding intensity (ln)": "8.71 ± 0.48"}, {"sequence": "ATATATATATATATAACACACGTGTATATATATGTA [CACACA_site3644]", "gcPBM binding intensity (ln)": "9.51 ± 0.35"}, {"sequence": "TATAATATATTATAACGTACAAATATATATATAAAA [XGTACX_site6581]", "gcPBM binding intensity (ln)": "8.75 ± 0.47"}]}]}
